# Measurements taken from PMC12820563.
# The other results are listed elsewhere or left out. The list includes weakly bound sequences.
# Molecular target: T1, MBP-FoxP3dN (UniProt Q99JB6)
# T1 sequence: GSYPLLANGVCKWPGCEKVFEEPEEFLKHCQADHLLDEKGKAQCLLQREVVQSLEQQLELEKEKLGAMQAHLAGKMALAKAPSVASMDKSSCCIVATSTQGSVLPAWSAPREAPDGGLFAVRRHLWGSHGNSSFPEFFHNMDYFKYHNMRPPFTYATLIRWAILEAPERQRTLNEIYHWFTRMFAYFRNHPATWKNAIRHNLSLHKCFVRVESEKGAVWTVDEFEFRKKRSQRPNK
# Test: PD-seq (MBP pull-down with sequencing)
# Conditions: 20 mM Tris-HCl pH 7.5, 100 mM NaCl, 1.5 mM MgCl2, 0.4 uM protein, 0.1 uM dsDNA library, 30 min, room temperature, amylose pull-down; high values mean tight binding; double strand, one strand shown
row,Sequence,binding signal (RPM ratio (pull-down/input))
1,GATGATTGTTCTCCCAGCTGATGAATTGTCTCGGTCGAGTAAACAAATTTTCCTAATCTTTCTGTTCAAGCGCCATCTAC,0.31
2,GATGATTGTTCTCCCAGCTGATGAATTTTCTGCTTCGAGTAAACAAATTTTCCTAATCTTTCTGTTCAAGCGCCATCTAC,0.277
3,GATGATTGTTCTCCCAGCTGATGAATTAATTGTCTCGAGTAAACAAATTTTCCTAATCTTTCTGTTCAAGCGCCATCTAC,3.16
4,GATGATTGTTCTCCCAGCTGATGAATTAGGTCTATCGAGTAAACAAATTTTCCTAATCTTTCTGTTCAAGCGCCATCTAC,0.488
5,GATGATTGTTCTCCCAGCTGATGAATTCAATCACTCGAGTAAACAAATTTTCCTAATCTTTCTGTTCAAGCGCCATCTAC,0.553
6,GATGATTGTTCTCCCAGCTGATGAATTCAAGCGGTCGAGTAAACAAATTTTCCTAATCTTTCTGTTCAAGCGCCATCTAC,0.398
7,GATGATTGTTCTCCCAGCTGATGAATTTAGGTCTTCGAGTAAACAAATTTTCCTAATCTTTCTGTTCAAGCGCCATCTAC,0.709
8,GATGATTGTTCTCCCAGCTGATGAATTAATAGTCTCGAGTAAACAAATTTTCCTAATCTTTCTGTTCAAGCGCCATCTAC,0.677
9,GATGATTGTTCTCCCAGCTGATGAATTGTACTACTCGAGTAAACAAATTTTCCTAATCTTTCTGTTCAAGCGCCATCTAC,0.546
10,GATGATTGTTCTCCCAGCTGATGAATTAATGTGATCGAGTAAACAAATTTTCCTAATCTTTCTGTTCAAGCGCCATCTAC,0.811
11,GATGATTGTTCTCCCAGCTGATGAATTGCTTTAATCGAGTAAACAAATTTTCCTAATCTTTCTGTTCAAGCGCCATCTAC,0.464
12,GATGATTGTTCTCCCAGCTGATGAATTGCTGAGGTCGAGTAAACAAATTTTCCTAATCTTTCTGTTCAAGCGCCATCTAC,0.4
13,GATGATTGTTCTCCCAGCTGATGAATTAGTTTCTTCGAGTAAACAAATTTTCCTAATCTTTCTGTTCAAGCGCCATCTAC,2.72
14,GATGATTGTTCTCCCAGCTGATGAATTGGTCGCGTCGAGTAAACAAATTTTCCTAATCTTTCTGTTCAAGCGCCATCTAC,0.614
15,GATGATTGTTCTCCCAGCTGATGAATTATCAATGTCGAGTAAACAAATTTTCCTAATCTTTCTGTTCAAGCGCCATCTAC,0.43
16,GATGATTGTTCTCCCAGCTGATGAATTGTTCTCCTCGAGTAAACAAATTTTCCTAATCTTTCTGTTCAAGCGCCATCTAC,0.415
17,GATGATTGTTCTCCCAGCTGATGAATTTATTATGTCGAGTAAACAAATTTTCCTAATCTTTCTGTTCAAGCGCCATCTAC,5.83
18,GATGATTGTTCTCCCAGCTGATGAATTCTCTGTATCGAGTAAACAAATTTTCCTAATCTTTCTGTTCAAGCGCCATCTAC,0.441
19,GATGATTGTTCTCCCAGCTGATGAATTGTAGGGATCGAGTAAACAAATTTTCCTAATCTTTCTGTTCAAGCGCCATCTAC,0.456
20,GATGATTGTTCTCCCAGCTGATGAATTGTCGGCATCGAGTAAACAAATTTTCCTAATCTTTCTGTTCAAGCGCCATCTAC,0.836
21,GATGATTGTTCTCCCAGCTGATGAATTAAGGTAGTCGAGTAAACAAATTTTCCTAATCTTTCTGTTCAAGCGCCATCTAC,0.394

row,Sequence,binding signal (RPM ratio (pull-down/input))
1,GATGATTGTTCTCCCAGCTGATGAATTGTGCCTTTCGAGTAAACAAATTTTCCTAATCTTTCTGTTCAAGCGCCATCTAC,6.1
2,GATGATTGTTCTCCCAGCTGATGAATTTTTCGAATCGAGTAAACAAATTTTCCTAATCTTTCTGTTCAAGCGCCATCTAC,0.252
3,GATGATTGTTCTCCCAGCTGATGAATTGACGGAGTCGAGTAAACAAATTTTCCTAATCTTTCTGTTCAAGCGCCATCTAC,0.26
4,GATGATTGTTCTCCCAGCTGATGAATTGACAGGTTCGAGTAAACAAATTTTCCTAATCTTTCTGTTCAAGCGCCATCTAC,0.414
5,GATGATTGTTCTCCCAGCTGATGAATTCGACCGTTCGAGTAAACAAATTTTCCTAATCTTTCTGTTCAAGCGCCATCTAC,0.299
6,GATGATTGTTCTCCCAGCTGATGAATTAGTCAAATCGAGTAAACAAATTTTCCTAATCTTTCTGTTCAAGCGCCATCTAC,0.309
7,GATGATTGTTCTCCCAGCTGATGAATTCAATTCCTCGAGTAAACAAATTTTCCTAATCTTTCTGTTCAAGCGCCATCTAC,0.665
8,GATGATTGTTCTCCCAGCTGATGAATTGACATGGTCGAGTAAACAAATTTTCCTAATCTTTCTGTTCAAGCGCCATCTAC,0.404
9,GATGATTGTTCTCCCAGCTGATGAATTACTTTTATCGAGTAAACAAATTTTCCTAATCTTTCTGTTCAAGCGCCATCTAC,0.44
10,GATGATTGTTCTCCCAGCTGATGAATTCGTGCCCTCGAGTAAACAAATTTTCCTAATCTTTCTGTTCAAGCGCCATCTAC,0.554
11,GATGATTGTTCTCCCAGCTGATGAATTAGCGTGATCGAGTAAACAAATTTTCCTAATCTTTCTGTTCAAGCGCCATCTAC,1.16
12,GATGATTGTTCTCCCAGCTGATGAATTTTCTTAGTCGAGTAAACAAATTTTCCTAATCTTTCTGTTCAAGCGCCATCTAC,0.314
13,GATGATTGTTCTCCCAGCTGATGAATTTCGCGTATCGAGTAAACAAATTTTCCTAATCTTTCTGTTCAAGCGCCATCTAC,1.43
14,GATGATTGTTCTCCCAGCTGATGAATTTAAGTTGTCGAGTAAACAAATTTTCCTAATCTTTCTGTTCAAGCGCCATCTAC,1.12
15,GATGATTGTTCTCCCAGCTGATGAATTTGCGAAATCGAGTAAACAAATTTTCCTAATCTTTCTGTTCAAGCGCCATCTAC,0.546
16,GATGATTGTTCTCCCAGCTGATGAATTGTAACGATCGAGTAAACAAATTTTCCTAATCTTTCTGTTCAAGCGCCATCTAC,0.496
17,GATGATTGTTCTCCCAGCTGATGAATTAGGAAGTTCGAGTAAACAAATTTTCCTAATCTTTCTGTTCAAGCGCCATCTAC,0.288
18,GATGATTGTTCTCCCAGCTGATGAATTATGCCCCTCGAGTAAACAAATTTTCCTAATCTTTCTGTTCAAGCGCCATCTAC,2.3
19,GATGATTGTTCTCCCAGCTGATGAATTCTCCCCATCGAGTAAACAAATTTTCCTAATCTTTCTGTTCAAGCGCCATCTAC,0.26
20,GATGATTGTTCTCCCAGCTGATGAATTACATATATCGAGTAAACAAATTTTCCTAATCTTTCTGTTCAAGCGCCATCTAC,0.842
21,GATGATTGTTCTCCCAGCTGATGAATTTGTAGTATCGAGTAAACAAATTTTCCTAATCTTTCTGTTCAAGCGCCATCTAC,5.7

row,Sequence,binding signal (RPM ratio (pull-down/input))
1,GATGATTGTTCTCCCAGCTGATGAATTTAACAGGTCGAGTAAACAAATTTTCCTAATCTTTCTGTTCAAGCGCCATCTAC,0.231
2,GATGATTGTTCTCCCAGCTGATGAATTAGGTAGCTCGAGTAAACAAATTTTCCTAATCTTTCTGTTCAAGCGCCATCTAC,0.601
3,GATGATTGTTCTCCCAGCTGATGAATTGTCCGTTTCGAGTAAACAAATTTTCCTAATCTTTCTGTTCAAGCGCCATCTAC,0.359
4,GATGATTGTTCTCCCAGCTGATGAATTGATTCTATCGAGTAAACAAATTTTCCTAATCTTTCTGTTCAAGCGCCATCTAC,0.401
5,GATGATTGTTCTCCCAGCTGATGAATTAGTCCATTCGAGTAAACAAATTTTCCTAATCTTTCTGTTCAAGCGCCATCTAC,0.564
6,GATGATTGTTCTCCCAGCTGATGAATTCTTCCTCTCGAGTAAACAAATTTTCCTAATCTTTCTGTTCAAGCGCCATCTAC,0.204
7,GATGATTGTTCTCCCAGCTGATGAATTCGCGCTGTCGAGTAAACAAATTTTCCTAATCTTTCTGTTCAAGCGCCATCTAC,0.479
8,GATGATTGTTCTCCCAGCTGATGAATTCTGCAAGTCGAGTAAACAAATTTTCCTAATCTTTCTGTTCAAGCGCCATCTAC,2.6
9,GATGATTGTTCTCCCAGCTGATGAATTTCATGTATCGAGTAAACAAATTTTCCTAATCTTTCTGTTCAAGCGCCATCTAC,1.05
10,GATGATTGTTCTCCCAGCTGATGAATTGAACTTATCGAGTAAACAAATTTTCCTAATCTTTCTGTTCAAGCGCCATCTAC,0.427
11,GATGATTGTTCTCCCAGCTGATGAATTAACTCCTTCGAGTAAACAAATTTTCCTAATCTTTCTGTTCAAGCGCCATCTAC,0.269
12,GATGATTGTTCTCCCAGCTGATGAATTGAACAAATCGAGTAAACAAATTTTCCTAATCTTTCTGTTCAAGCGCCATCTAC,0.246
13,GATGATTGTTCTCCCAGCTGATGAATTGAGCATATCGAGTAAACAAATTTTCCTAATCTTTCTGTTCAAGCGCCATCTAC,2.11
14,GATGATTGTTCTCCCAGCTGATGAATTGGCATGCTCGAGTAAACAAATTTTCCTAATCTTTCTGTTCAAGCGCCATCTAC,1.33
15,GATGATTGTTCTCCCAGCTGATGAATTCAAGTGGTCGAGTAAACAAATTTTCCTAATCTTTCTGTTCAAGCGCCATCTAC,0.381
16,GATGATTGTTCTCCCAGCTGATGAATTTCGGACGTCGAGTAAACAAATTTTCCTAATCTTTCTGTTCAAGCGCCATCTAC,0.276
17,GATGATTGTTCTCCCAGCTGATGAATTAACCACATCGAGTAAACAAATTTTCCTAATCTTTCTGTTCAAGCGCCATCTAC,0.436
18,GATGATTGTTCTCCCAGCTGATGAATTATTGAACTCGAGTAAACAAATTTTCCTAATCTTTCTGTTCAAGCGCCATCTAC,0.363
19,GATGATTGTTCTCCCAGCTGATGAATTTGTCCACTCGAGTAAACAAATTTTCCTAATCTTTCTGTTCAAGCGCCATCTAC,2.44
20,GATGATTGTTCTCCCAGCTGATGAATTCACGAAGTCGAGTAAACAAATTTTCCTAATCTTTCTGTTCAAGCGCCATCTAC,0.192
21,GATGATTGTTCTCCCAGCTGATGAATTTCAGAAGTCGAGTAAACAAATTTTCCTAATCTTTCTGTTCAAGCGCCATCTAC,0.16
